The text below walks through data of ChEMBL document CHEMBL4888484, “Replenishing the malaria drug discovery pipeline: Screening and hit evaluation of the MMV Hit Generation Library 1 (HGL1) against asexual blood stage Plasmodium falciparum ,using a nano luciferase reporter read-out” (2022).

The whole screen tested about 150,000 compounds, of which about 540 (0.36%) showed an effect of 50% or more. The list shows a part of the results.

This experiment relates to Plasmodium falciparum. Description: Primary screen in NF54 nanoGlo assay, in single point, at 2uM, 72h; a lower Z score goes with more inhibition. In kind it is functional, Erythrocyte. The settings on record: timepoint 72 hour.
Take `CCOCc1cnc(C)nc1NCC(=O)c1c(C)[nH]c2ccccc12`: the “% Inhibition” value is on record as 11% and the Z score is listed as -1.56.
For `Cc1ccc([C@H](O)CNC(=O)c2nc3c(s2)CCC3)cc1`, in that order: -6% and 1.16.
For `CC(C)C(OC(=O)c1ccnn1C)C(=O)NC1CCOc2ccccc21` (configuration not stated), in that order: -5% and 0.55.
As to `CN(CCN(C)C1CC1)C(=O)[C@]12CC[C@H](CC1=O)C2(C)C`, the “% Inhibition” value is -1% and the Z score worked out at 0.25.
For the compound `CC(C(=O)N1CCCC1Cc1c(F)cccc1Cl)S(C)(=O)=O` (configuration not stated), the “% Inhibition” value is reported as -1% and the Z score was determined as 0.07.
As for `O=C(O)c1cccc(CN(Cc2ccoc2)C2CC2)c1Cl`, the “% Inhibition” value is -12% and the Z score was determined as 2.28.
In the case of `Cc1cc(=O)n2ncc(C(=O)Nc3ccccc3)c2[nH]1`, the “% Inhibition” value was -2% and the Z score came to 0.34.
Turning to `Cc1cc(C(=O)NC[C@@]2(O)C=CCCC2)no1`, the “% Inhibition” value is listed as 2% and the Z score is -0.26.
The corresponding values for `CC1(C)CCC(NC(=O)c2ncoc2C2CC2)(C(N)=O)CC1` are -9% and 1.57.
Take `CN(C)c1ccc(-c2noc(C3CCCCC3)n2)cc1`: the “% Inhibition” value is given as -12% and the Z score is 1.64.
For `CN(C(=O)Cc1csc(N2CCCNC2=O)n1)c1ccc(F)cc1`, the “% Inhibition” value stood at 0% and the Z score is listed as 0.
The corresponding values for `O=C(CC1CCN(C(=O)c2ccccc2Cl)CC1)NCCN1CCN(Cc2ccccc2)CC1` are -7% and 1.28.
For `CC1=Nc2ccc(Cl)cc2-c2[nH]c3ccccc3c2N1`, in that order: 6% and -1.12.
With `Cc1cc(C(=O)Nc2ccc(NC(=O)NCc3ccco3)cc2)c2c(=O)[nH]n(C)c2n1`, the “% Inhibition” value is recorded as -10% and the Z score was 1.98.
The corresponding values for `COc1c(F)cccc1C(=O)N1CCCN2CCC[C@H]2C1` are -16% and 3.02.
The corresponding values for `CCc1nc(CN2C(=O)COc3cc(S(=O)(=O)N4CCC(C)CC4)c(Cl)cc32)no1` are 0% and -0.05.
As to `CC(C)=CCN1CC2(CCN(C(=O)c3oc(C)nc3C)CC2)CC1=O`, the “% Inhibition” value is given as -15% and the Z score was 1.7.
For `CCCC(NC(=O)C(C)n1cncn1)C(=O)N1CCc2sccc2C1` (configuration not stated), in that order: -15% and 2.76.
The corresponding values for `C=CCn1nc(C)c([C@H]2c3nc[nH]c3CCN2Cc2cc(C)c(C)o2)c1C` are -9% and 1.01.
The corresponding values for `CC(C)c1noc(CN2CC[C@H](NC(=O)c3ccccn3)[C@@H](O)C2)n1` are -2% and 0.42.
On to `Cc1noc(C)c1CN1CCCN(C(=O)c2n[nH]c3ccccc23)CC1`, for which the “% Inhibition” value worked out at 33% and the Z score is recorded as -0.69.
For `O=C(NCc1ccnc(-c2cccs2)c1)NC1CCOCC1`, in that order: 0% and -0.01.
With `Cc1nnc(OCC2CC3(CCC3)C2)s1`, the “% Inhibition” value is given as -3% and the Z score was determined as 0.43.
For `C[C@@H](CNC(=O)c1cc(C(N)=O)cs1)c1ccc(F)c(F)c1`, the “% Inhibition” value is listed as -10% and the Z score came out at 1.93.
The corresponding values for `CCc1nnc2nc(N3CCN(C(=O)Cc4ccc(OC)c(OC)c4)CC3)cc(C)n12` are -3% and 0.39.
For `CN1C[C@@H](NC(=O)N2CCN(c3cccs3)CC2)CCC1=O`, in that order: 5% and -0.52.
Regarding `COc1cc(-c2ncc(C(=O)NCC3CC3)c(N(C)C3CCCCC3)n2)cc(OC)c1OC`, the “% Inhibition” value is reported as -3% and the Z score stood at 0.4.
For `COCC(=O)N[C@@H]1CN(C(=O)c2ccc(N(C)C)nc2)C[C@H]1c1ccnn1C`, in that order: -16% and 2.58.
On to `Cn1ncc2c(N3CC4CCC(O)CC4C3)ccnc21` (configuration not stated), for which the “% Inhibition” value is recorded as -3% and the Z score was 0.34.
For `OCc1cc2n(n1)CCN(c1ncc(F)c(N3CCOCC3)n1)C2`, the “% Inhibition” value came to 6% and the Z score is on record as -0.95.
For `CC(C)c1nnc(NCc2c(Cl)cnn2C)s1`, in that order: -7% and 1.39.
For `O=C(NCc1cc[nH]n1)C(=O)N1CCc2c(Cl)cccc21`, in that order: -3% and 0.58.
Turning to `O=C(N[C@H](CO)Cc1cccnc1)c1cccc2c1OCC2`, the “% Inhibition” value is on record as 0% and the Z score came to 0.08.
As for `CCN1CCN(c2cc(C)nc3nc(CN4CCC5(CC4)OCCO5)nn23)CC1`, the “% Inhibition” value was -16% and the Z score is listed as 2.07.
Regarding `Cc1ccc2nc(-c3ccccc3C)c(NC(=O)Nc3ccc(Cl)cc3)n2c1`, the “% Inhibition” value is -7% and the Z score turned out to be 0.91.
In the case of `CN1CCN(CC(=O)NC[C@@]23CCC[C@@H]2OCC3)CC1=O`, the “% Inhibition” value is given as 8% and the Z score is -1.11.
The corresponding values for `C[C@@H](Cc1ccccc1F)N1CCC(n2cc(C3CC3)nn2)CC1` are 8% and -1.06.
The corresponding values for `Cn1cnc([C@@H]2CN(c3ncnc4c3OCCN4)C[C@H]2C(=O)N2CCOCC2)c1` are -5% and 0.91.
The corresponding values for `COc1cccc(-c2nccn2CC(=O)N2CCNCC2)c1OC` are -21% and 2.73.
As for `O=C(Cc1cccc(F)c1)N1C[C@H]2CCC[C@@H](O)[C@H]2C1`, the “% Inhibition” value is -12% and the Z score was determined as 1.14.
For `O=C(Cn1nc(-n2ccc3ccccc32)ccc1=O)Nc1c[nH]c(=O)[nH]c1=O`, in that order: -7% and 1.31.

For orientation: % Inhibition means the relative decrease from the control value, in per cent.
